Measurements reported in patent US20130089549A1 (SICHUAN UNIVERSITY, published 2013).

B1: fusion protein BAFF Trap (TACI CRD2 - Br3 CRD - IgG1 Fc) (Fc fusion)
chain: LSCRKEQGKFYDHLLRDCISCASICGQHPKQCAYFCENKLRSPGRDAPAPTPCVPAECFDLLVRHCVACGLLRTPRPKPAGASSPAP[human IgG1 Fc not written out]
notes: also called BT; TACI-Br3-IgG1 Fc
B2: Br3-Fc standard (Fc fusion)
chain: not shown
notes: Control standard; also called BAFF R-Fc; not shown: Fc part of the standard

What was measured:
[1] = biological target: T1, B cell activating factor (BAFF) standard (UniProt Q9Y275 part only); assay: SPR, BIAcore T100; BAFF Trap coupled to chip, BAFF as analyte
T1 construct: also called BLyS; TALL-1
Source text: (§1) Using BIAcore T100 to detect binding capacity of BAFF Trap and BAFF in vitro conditions, the binding constant was analysis by BIAcore T100 Evaluation Software. Also, the standards of BAFF R-Fc and TACI-Fc were used as a control substance.

[2] = biological target: T1, B cell activating factor (BAFF) standard; assay: SPR, BIAcore T100; Br3-Fc coupled to chip, BAFF as analyte
Source text: as §1

T1 sequence (Q9Y275 134-285 limits assumed): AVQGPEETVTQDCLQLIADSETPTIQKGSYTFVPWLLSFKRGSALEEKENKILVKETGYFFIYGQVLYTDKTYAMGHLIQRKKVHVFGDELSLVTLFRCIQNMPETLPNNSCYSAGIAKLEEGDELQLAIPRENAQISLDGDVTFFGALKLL

Binder	Kd [1] [nM]	koff [1] [s⁻¹]	Kd [2] [nM]	koff [2] [s⁻¹]	kon [2] [M⁻¹ s⁻¹]
B1	12.7	0.000141	–	–	–
B2	–	–	34	0.000679	19900
